Results on three molecules are retold here after patent US20190225669A1 (ACCELERON PHARMA, published 2019).

Read-outs that look alike come from different tables or passages of the source. Bounds are passed on as bounds.

In assay [1] the target is T1, BMP10 (UniProt O95393 317-424).
T1 sequence (looked up): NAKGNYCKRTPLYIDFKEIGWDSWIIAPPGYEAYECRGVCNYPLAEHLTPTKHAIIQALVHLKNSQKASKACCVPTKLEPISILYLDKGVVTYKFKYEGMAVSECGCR
Put plainly: Biacore SPR; kinetics indeterminate (transient). As to the method: (§1) Ligands were injected and allowed to flow over the captured receptor protein.
(In general: SPR reads the build-up and loss of mass on a sensor chip optically.)

A further assay concerns the target T2, BMP7 (UniProt P18075 293-431).
T2 sequence (looked up): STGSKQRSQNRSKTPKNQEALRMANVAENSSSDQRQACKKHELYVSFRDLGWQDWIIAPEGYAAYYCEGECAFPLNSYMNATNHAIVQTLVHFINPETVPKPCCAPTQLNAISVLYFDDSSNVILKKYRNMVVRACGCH
In words: Biacore SPR. As to the method: as §1

For a further assay, the target named is T3, activin AB (UniProt P08476 311-426; P09529 293-407).
T3 sequence (looked up) 1: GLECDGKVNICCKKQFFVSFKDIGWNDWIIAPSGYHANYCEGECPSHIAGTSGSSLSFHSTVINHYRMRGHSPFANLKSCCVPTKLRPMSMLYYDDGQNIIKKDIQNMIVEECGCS
T3 sequence (looked up) 2: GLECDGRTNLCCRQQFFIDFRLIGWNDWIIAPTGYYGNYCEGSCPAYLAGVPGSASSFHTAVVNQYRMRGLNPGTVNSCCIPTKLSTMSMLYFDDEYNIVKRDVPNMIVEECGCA
Put plainly: Biacore SPR. As to the method: as §1

For another assay, the target named is T4, activin A (UniProt P08476 311-426).
T4 sequence (looked up): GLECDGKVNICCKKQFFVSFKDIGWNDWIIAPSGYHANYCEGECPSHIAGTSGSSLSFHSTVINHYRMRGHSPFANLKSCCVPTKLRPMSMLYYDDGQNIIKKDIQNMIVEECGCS
In words: Biacore SPR. As to the method:
as §1

The target of a further assay is T5, GDF3 (UniProt Q9NR23 251-364).
T5 sequence (looked up): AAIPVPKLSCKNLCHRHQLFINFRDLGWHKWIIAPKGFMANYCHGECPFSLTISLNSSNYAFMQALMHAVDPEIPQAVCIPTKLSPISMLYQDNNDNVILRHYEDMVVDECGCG
Put plainly: Biacore SPR. As to the method: as §1

The next assay has as its target T6, BMP6 (UniProt P22004 382-513, limits assumed).
T6 sequence (looked up): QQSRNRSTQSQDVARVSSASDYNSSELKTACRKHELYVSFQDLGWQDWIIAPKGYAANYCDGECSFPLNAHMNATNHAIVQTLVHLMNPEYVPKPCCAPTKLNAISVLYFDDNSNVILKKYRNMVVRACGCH
Put plainly: Biacore SPR. The method, then: as §1

The next assay concerns the target T7, GDF11 (UniProt O95390 299-407).
T7 construct: also called BMP11
T7 sequence (looked up): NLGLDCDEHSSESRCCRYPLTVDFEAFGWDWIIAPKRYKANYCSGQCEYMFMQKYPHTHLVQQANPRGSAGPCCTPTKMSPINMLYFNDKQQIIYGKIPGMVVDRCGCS
Put plainly: Biacore SPR. The method, then: as §1

For the next assay, the target named is T8, GDF8 (UniProt O14793 267-375).
T8 construct: also called myostatin
T8 sequence (looked up): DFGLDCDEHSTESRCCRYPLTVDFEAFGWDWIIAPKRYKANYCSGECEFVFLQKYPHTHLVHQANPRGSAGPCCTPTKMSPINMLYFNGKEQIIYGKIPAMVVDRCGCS
Put plainly: Biacore SPR. As to the method:
as §1

The next assay addresses T9, activin B (UniProt P09529 293-407).
T9 sequence (looked up): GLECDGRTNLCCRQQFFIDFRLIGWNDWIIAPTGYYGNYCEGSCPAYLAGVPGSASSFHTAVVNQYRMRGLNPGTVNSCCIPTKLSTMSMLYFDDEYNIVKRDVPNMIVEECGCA
In words: Biacore SPR. As to the method: as §1

For assay [2], the target named is T10, BMP9 (UniProt Q9UK05 320-429).
T10 construct: also called GDF2
T10 sequence (looked up): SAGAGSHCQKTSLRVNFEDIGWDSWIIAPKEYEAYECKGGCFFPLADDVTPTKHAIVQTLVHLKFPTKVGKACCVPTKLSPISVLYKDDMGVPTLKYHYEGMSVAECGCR
Put plainly: Biacore SPR. The method, then:
as §1

For another assay, the target named is T11, activin AC (UniProt P08476 311-426; P55103 237-352).
T11 sequence (looked up) 1: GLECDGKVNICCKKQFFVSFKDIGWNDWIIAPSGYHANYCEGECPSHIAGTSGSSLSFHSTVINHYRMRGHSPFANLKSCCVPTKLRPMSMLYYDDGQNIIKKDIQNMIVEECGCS
T11 sequence (looked up) 2: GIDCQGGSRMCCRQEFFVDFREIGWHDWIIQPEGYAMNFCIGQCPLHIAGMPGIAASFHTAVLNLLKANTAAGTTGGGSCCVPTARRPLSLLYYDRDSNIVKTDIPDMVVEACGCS
Put plainly: Biacore SPR. As to the method: as §1

The target in assay [3] is T12, BMP15 (UniProt O95972 268-392).
T12 construct: also called GDF9b
T12 sequence (looked up): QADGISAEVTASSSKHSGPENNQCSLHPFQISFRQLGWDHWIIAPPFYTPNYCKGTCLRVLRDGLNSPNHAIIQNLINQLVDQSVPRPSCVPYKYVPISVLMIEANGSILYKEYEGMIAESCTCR
In words: Biacore SPR.

The target of assay [4] is T12, BMP15. In words: Biacore SPR. As to the method: as §1
The source holds these as a separate data set.

In assay [5] the target is T1, BMP10. In words: Biacore SPR. The method, then: as §1
Assay [6] has as its target T10, BMP9. In words: Biacore SPR. The method, then:
(§2) A Biacore™-based binding assay was used to compare ligand binding selectivity of the TGFβRIISHORT-Fc:ALK1-Fc heterodimeric complex described above with that of TGFβRIISHORT-Fc and ALK1-Fc homodimeric complexes. […] Ligands were injected and allowed to flow over the captured receptor protein.
This is another data set of the same source.

Another assay deals with T13, TGFβ2 (human, UniProt P61812 303-414).
T13 construct: Human (PeproTech) is stated for the A549 reporter assay; also called TGF-beta2
T13 sequence (looked up): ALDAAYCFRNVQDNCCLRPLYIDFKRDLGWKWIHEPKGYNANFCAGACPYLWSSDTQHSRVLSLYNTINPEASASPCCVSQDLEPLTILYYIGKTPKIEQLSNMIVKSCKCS
Put plainly: Biacore SPR. As to the method: as §2

For assay [7], the target named is T1, BMP10. Put plainly: Biacore SPR. The method, then:
as §2
The source holds these as a separate data set.

For a further assay, the target named is T14, TGFβ3 (human, UniProt P10600 301-412).
T14 construct: Human (PeproTech) is stated for the A549 reporter assay; also called TGF-beta3
T14 sequence (looked up): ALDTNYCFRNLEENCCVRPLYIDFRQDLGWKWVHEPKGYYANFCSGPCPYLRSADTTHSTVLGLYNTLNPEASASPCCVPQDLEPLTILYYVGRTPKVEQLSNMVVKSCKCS
In words: Biacore SPR; kinetics indeterminate (transient). The method, then: as §2

For the next assay, the target named is T15, TGFβ1 (human, UniProt P01137 in part).
T15 construct: Human (PeproTech) is stated for the A549 reporter assay; also called TGF-beta1
In words: Biacore SPR; kinetics indeterminate (transient). As to the method: as §2

Sequence of TGFβ1 (P01137 279-390 limits assumed): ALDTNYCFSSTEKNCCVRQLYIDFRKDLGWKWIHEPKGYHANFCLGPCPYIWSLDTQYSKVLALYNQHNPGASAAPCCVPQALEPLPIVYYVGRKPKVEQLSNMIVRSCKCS

B1: ActRIIA-Fc:ALK4-Fc heterodimer (Fc fusion)
chain 1: [no letters for about 120 residues][no letters for about 250 residues]
chain 2: SGPRGVQALLCACTSCLQANYTCETDGACMVSIFNLDGMEHHVRTCIPKVELVPAGKPFYCLSSEDLRNTHCCYTDYCNRIDLRVPSGHLKEPEHPSMWGPVETGGGTHTCPPCPAPELLGGPSVFLFPPKPKDTLMISRTPEVTCVVVDVSHEDPEVKFNWYVDGVEVHNAKTKPREEQYNSTYRVVSVLTVLHQDWLNGKEYKCKVSNKALPAPIEKTISKAKGQPREPQVYTLPPSREEMTKNQVSLTCLVKGFYPSDIAVEWESNGQPENNYDTTPPVLDSDGSFFLYSDLTVDKSRWQQGNVFSCSVMHEALHNHYTQKSLSLSPG
notes: C-terminal Lys optional; also called ActRIIA-Fc:ALK4-Fc heterodimeric complex
As for B1, the Kd was more than 6 nM with BMP10 [1]; 3.5 nM with BMP7; 0.013 nM in the assay with activin AB; 0.032 nM with activin A; 2.2 nM with BMP6; 0.022 nM with GDF11. For the same molecule, the results for the Kd with GDF8, with activin B and with activin AC were 0.15 nM, 0.05 nM and 0.17 nM, respectively. For the same molecule, the koff was 0.072 s⁻¹ with BMP7; 0.00023 s⁻¹ with activin AB; 0.00024 s⁻¹ in the assay with activin A; 0.0048 s⁻¹ in the assay with GDF3; 0.012 s⁻¹ with BMP6; 0.00065 s⁻¹ with GDF11. In addition, the figures for the koff with GDF8, with activin B and with activin AC were 0.0028 s⁻¹, 0.00048 s⁻¹ and 0.00054 s⁻¹, respectively. The kon with BMP7 came to 2e+07 M⁻¹ s⁻¹; with activin AB, 1.8e+07 M⁻¹ s⁻¹; in the assay with activin A, 7.4e+06 M⁻¹ s⁻¹; with GDF3 it was 490000 M⁻¹ s⁻¹; with BMP6, 5.4e+06 M⁻¹ s⁻¹; in the assay with GDF11, 3e+07 M⁻¹ s⁻¹. Besides, the kon was determined as 1.8e+07 M⁻¹ s⁻¹ with GDF8, 9.5e+06 M⁻¹ s⁻¹ with activin B and 3.2e+06 M⁻¹ s⁻¹ with activin AC. Further, in the assay with BMP9 [2], the binding result is on record as “no binding”.

B2: BMPRII-Fc:ALK1-Fc heterodimer (Fc fusion)
chain 1: SQNQERLCAFKDPYQQDLGIGESRISHENGTILCSKGSTCYGLWEKSKGDINLVKQGCWSHIGDPQECHYEECVVTTTPPSIQNGTYRFCCCSTDLCNVNFTENFPPPDTTPLSPPHSFNRDETGGGTHTCPPCPAPELLGGPSVFLFPPKPKDTLMISRTPEVTCVVVDVSHEDPEVKFNWYVDGVEVHNAKTKPREEQYNSTYRVVSVLTVLHQDWLNGKEYKCKVSNKALPAPIEKTISKAKGQPREPQVYTLPPSRKEMTKNQVSLTCLVKGFYPSDIAVEWESNGQPENNYKTTPPVLKSDGSFFLYSKLTVDKSRWQQGNVFSCSVMHEALHNHYTQKSLSLSPGK
chain 2: [no letters for about 100 residues][no letters for about 250 residues]
notes: C-terminal Lys optional; also called BMPRII-Fc:ALK1-Fc heterodimeric complex
B2: in the assay with BMP15 [3], the “affinity ratio against BMPRII-Fc homodimer” value is approximately 10 fold. Also, in the assay with BMP15 [4], the Kd is 3.5 nM, the koff was 0.042 s⁻¹ and the kon is 1.2e+07 M⁻¹ s⁻¹. Besides, in the assay with BMP9 [2], the Kd is 0.36 nM, the koff worked out at 0.00041 s⁻¹ and the kon stood at 1.2e+06 M⁻¹ s⁻¹. In addition, in the assay with BMP10 [5], the affinity, expressed as Kd, was 0.023 nM; the koff was found to be 0.00035 s⁻¹; the kon worked out at 1.5e+07 M⁻¹ s⁻¹.

B3: TGFβRIISHORT-Fc:ALK1-Fc heterodimer (Fc fusion)
chain 1: TIPPHVQKSVNNDMIVTDNNGAVKFPQLCKFCDVRFSTCDNQKSCMSNCSITSICEKPQEVCVAVWRKNDENITLETVCHDPKLPYHDFILEDAASPKCIMKEKKKPGETFFMCSCSSDECNDNIIFSEEYNTSNPDTGGGTHTCPPCPAPELLGGPSVFLFPPKPKDTLMISRTPEVTCVVVDVSHEDPEVKFNWYVDGVEVHNAKTKPREEQYNSTYRVVSVLTVLHQDWLNGKEYKCKVSNKALPAPIEKTISKAKGQPREPQVYTLPPSRKEMTKNQVSLTCLVKGFYPSDIAVEWESNGQPENNYKTTPPVLKSDGSFFLYSKLTVDKSRWQQGNVFSCSVMHEALHNHYTQKSLSLSPGK
chain 2: [no letters for about 100 residues][no letters for about 250 residues]
notes: C-terminal Lys optional; also called TGFBRIISHORT-Fc:ALK1-Fc heterodimer; TGFβRII-Fc:ALK1-Fc heterodimer
As to B3, the dissociation constant (Kd) with BMP9 [6] is 0.11 nM; with BMP10 [7], 0.078 nM; with TGFβ3 it was more than 4.7 nM; with TGFβ1, more than 5.3 nM. For the same molecule, the koff is 0.0022 s⁻¹ with BMP9 [6] and 0.00096 s⁻¹ with BMP10 [7]. Also, the kon turned out to be 2.1e+07 M⁻¹ s⁻¹ with BMP9 [6] and 1.2e+07 M⁻¹ s⁻¹ with BMP10 [7]. Moreover, the binding result with TGFβ2 was “no binding”.

Broadly, the Kd is the free concentration of one partner at which half of the binding sites on the other are occupied at equilibrium, for simple one-to-one binding. The low end stands for a tighter complex, the high end for a looser complex. Usually koff stands for a measure of how fast the partners let go of each other. Low readings indicate a long-lived complex, high ones a short-lived complex. What is called kon is a measure of how fast the partners come together. The low end stands for slower complex formation, the high end for faster complex formation.
